Test results from patent US20210380663A1 (ACCELERON PHARMA, published 2021).

Assays:
TGFβ1 [1] = biological target: T1, TGFβ1 (human, UniProt P01137 partial chain); assay: cell-based or functional assay
TGFβ1 [2] = biological target: T1, TGFβ1; assay: cell-based or functional assay; remark: listed apart in the source
TGFβ1 [3] = biological target: T1, TGFβ1; assay: SPR (Biacore)
TGFβ1 [4] = biological target: T1, TGFβ1; assay: cell-based or functional assay; remark: listed apart in the source
TGFβ3 = biological target: T2, TGFβ3 (human, UniProt P10600 301-412); assay: cell-based or functional assay
T2 sequence (looked up): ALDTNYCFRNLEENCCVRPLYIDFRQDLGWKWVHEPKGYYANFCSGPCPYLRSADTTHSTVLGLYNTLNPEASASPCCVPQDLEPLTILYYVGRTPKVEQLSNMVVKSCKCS

TGFβ1 [5] = biological target: T1, TGFβ1; assay: cell-based or functional assay; remark: listed apart in the source
activin A = biological target: T3, activin A (UniProt P08476 311-426); assay: cell-based or functional assay
T3 sequence (looked up): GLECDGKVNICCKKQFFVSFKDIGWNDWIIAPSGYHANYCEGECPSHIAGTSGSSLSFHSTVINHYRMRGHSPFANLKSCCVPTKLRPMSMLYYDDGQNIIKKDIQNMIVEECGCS

GDF11 = GDF11 (UniProt O95390 299-407); assay: cell-based or functional assay
Sequence of GDF11 (O95390 299-407 limits assumed): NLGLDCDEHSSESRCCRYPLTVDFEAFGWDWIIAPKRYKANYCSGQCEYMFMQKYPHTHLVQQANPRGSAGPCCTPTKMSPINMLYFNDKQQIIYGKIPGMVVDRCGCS

T1 sequence (P01137 279-390 limits assumed): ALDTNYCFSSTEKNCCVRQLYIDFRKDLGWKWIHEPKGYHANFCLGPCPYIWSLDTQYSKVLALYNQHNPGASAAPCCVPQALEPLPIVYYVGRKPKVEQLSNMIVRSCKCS

B1: hTβRII (G4S)6-hFc (Fc fusion)
chain: GATIPPHVQKSDVEMEAQKDEIICPSCNRTAHPLRHINNDMIVTDNNGAVKFPQLCKFCDVRFSTCDNQKSCMSNCSITSICEKPQEVCVAVWRKNDENITLETVCHDPKLPYHDFILEDAASPKCIMKEKKKPGETFFMCSCSSDECNDNIIFSEEYNTSNPDTGGGGSGGGGSGGGGSGGGGSGGGGSGGG[sequence of human IgG1 Fc and a few adjoining residues not given]
notes: Expressed in CHO cells
In the case of B1, the “IC50; inhibition of TGFβ1 signalling, CAGA12 luciferase reporter in A549 cells” value (TGFβ1 [1]) is reported as 0.02 nM, the “IC50 (read off the curve); TGFβ1 (640 pg/mL) signalling, CAGA12 luciferase reporter in A549 cells” value (TGFβ1 [2]) is reported as roughly 2 ng/mL and the Kd (TGFβ1 [3]) is reported as 3.8 pM.

B2: hTβRII-hFc (Fc fusion)
chain: GATIPPHVQKSDVEMEAQKDEIICPSCNRTAHPLRHINNDMIVTDNNGAVKFPQLCKFCDVRFSTCDNQKSCMSNCSITSICEKPQEVCVAVWRKNDENITLETVCHDPKLPYHDFILEDAASPKCIMKEKKKPGETFFMCSCSSDECNDNIIFSEEYNTSNPDTG[sequence of human IgG1 Fc and a few adjoining residues not given]
notes: Expressed in CHO cells
In the case of B2, the “IC50; inhibition of TGFβ1 signalling, CAGA12 luciferase reporter in A549 cells” value (TGFβ1 [4]) is reported as 7.69 nM.

B3: hTβRII (G4S)2-hFc (Fc fusion)
chain: GATIPPHVQKSDVEMEAQKDEIICPSCNRTAHPLRHINNDMIVTDNNGAVKFPQLCKFCDVRFSTCDNQKSCMSNCSITSICEKPQEVCVAVWRKNDENITLETVCHDPKLPYHDFILEDAASPKCIMKEKKKPGETFFMCSCSSDECNDNIIFSEEYNTSNPDTGGGGSGGG[sequence of human IgG1 Fc and a few adjoining residues not given]
notes: Expressed in CHO cells
For B3, the “IC50; inhibition of TGFβ1 signalling, CAGA12 luciferase reporter in A549 cells” value (TGFβ1 [4]) was 1.12 nM.

B4: hTβRII (G4S)3-hFc (Fc fusion)
chain: GATIPPHVQKSDVEMEAQKDEIICPSCNRTAHPLRHINNDMIVTDNNGAVKFPQLCKFCDVRFSTCDNQKSCMSNCSITSICEKPQEVCVAVWRKNDENITLETVCHDPKLPYHDFILEDAASPKCIMKEKKKPGETFFMCSCSSDECNDNIIFSEEYNTSNPDTGGGGSGGGGSGGG[sequence of human IgG1 Fc and a few adjoining residues not given]
notes: Expressed in CHO cells
B4 was tested, and the “IC50; inhibition of TGFβ1 signalling, CAGA12 luciferase reporter in A549 cells” value (TGFβ1 [4]) was 0.22 nM.

B5: hTβRII (G4S)4-hFc (Fc fusion)
chain: GATIPPHVQKSDVEMEAQKDEIICPSCNRTAHPLRHINNDMIVTDNNGAVKFPQLCKFCDVRFSTCDNQKSCMSNCSITSICEKPQEVCVAVWRKNDENITLETVCHDPKLPYHDFILEDAASPKCIMKEKKKPGETFFMCSCSSDECNDNIIFSEEYNTSNPDTGGGGSGGGGSGGGGSGGG[sequence of human IgG1 Fc and a few adjoining residues not given]
notes: Expressed in CHO cells
With B5 the “IC50; inhibition of TGFβ1 signalling, CAGA12 luciferase reporter in A549 cells” value (TGFβ1 [4]) was 0.07 nM.

B6: hTβRII extended hinge-hFc (Fc fusion)
chain: GATIPPHVQKSDVEMEAQKDEIICPSCNRTAHPLRHINNDMIVTDNNGAVKFPQLCKFCDVRFSTCDNQKSCMSNCSITSICEKPQEVCVAVWRKNDENITLETVCHDPKLPYHDFILEDAASPKCIMKEKKKPGETFFMCSCSSDECNDNIIFSEEYNTSNPDTGGG[sequence of human IgG1 Fc not given]
notes: Expressed in CHO cells
With B6 the “IC50; inhibition of TGFβ1 signalling, CAGA12 luciferase reporter in A549 cells” value (TGFβ1 [4]) was 5.67 nM.

B7: hTβRII (G4S)5-hFc (Fc fusion)
chain: GATIPPHVQKSDVEMEAQKDEIICPSCNRTAHPLRHINNDMIVTDNNGAVKFPQLCKFCDVRFSTCDNQKSCMSNCSITSICEKPQEVCVAVWRKNDENITLETVCHDPKLPYHDFILEDAASPKCIMKEKKKPGETFFMCSCSSDECNDNIIFSEEYNTSNPDTGGGGSGGGGSGGGGSGGGGSGGG[sequence of human IgG1 Fc and a few adjoining residues not given]
notes: Expressed in CHO cells
In the case of B7, the “IC50; inhibition of TGFβ1 signalling, CAGA12 luciferase reporter in A549 cells” value (TGFβ1 [1]) is reported as 0.03 nM, the “IC50 (read off the curve); TGFβ1 (640 pg/mL) signalling, CAGA12 luciferase reporter in A549 cells” value (TGFβ1 [2]) is reported as roughly 3 ng/mL and the Kd (TGFβ1 [3]) is reported as 8.8 pM.

B8: ActRIIB-Fc-(G4S)4G-TGFBRII homodimer (4-arm) (Fc fusion)
ActRIIB ECD - GGG - Fc - linker - TGFβRII ECD fusion chain: GASGRGEAETRECIYYNANWELERTNQSGLERCEGEQDKRLHCYASWRNSSGTIELVKKGCWLDDFNCYDRQECVATEENPQVYFCCCEGNFCNERFTHLPEAGGPEVTYEPPPTAPTG[sequence of human IgG1 Fc and a few adjoining residues not given]AGGGGSGGGGSGGGGSGGGGSGTIPPHVQKSDVEMEAQKDEIICPSCNRTAHPLRHINNDMIVTDNNGAVKFPQLCKFCDVRFSTCDNQKSCMSNCSITSICEKPQEVCVAVWRKNDENITLETVCHDPKLPYHDFILEDAASPKCIMKEKKKPGETFFMCSCSSDECNDNIIFSEEYNTSNPD
For B8, the “IC50; inhibition of TGFβ3 signalling, CAGA12 reporter gene assay in A549 cells” value (TGFβ3) was 11.4 pM, the “IC50; inhibition of TGFβ1 signalling, CAGA12 reporter gene assay in A549 cells” value (TGFβ1 [5]) was 20.6 pM and the “IC50; inhibition of activin A signalling, CAGA12 reporter gene assay in A204 cells” value (activin A) was 89.1 pM. For the same binder, the “IC50; inhibition of GDF11 signalling, CAGA12 reporter gene assay in A204 cells” value (GDF11) was 171 pM.

Read-outs that look alike come from different tables or passages of the source.
